Assay results as given in the supplement of paper PMC4967469.

Experiments:
Assay in all cases: Viability of human cancer cell lines after 72 h of drug (GDSC screen)
TW-37 = compound: CC(C)c1ccccc1Cc1cc(C(=O)Nc2ccc(S(=O)(=O)c3ccccc3C(C)(C)C)cc2)c(O)c(O)c1O [TW-37]; conditions: top dose 5 µM
Protocol: (§1)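 Human cancer cell lines in 384-well plates, medium with 10% serum, drug for 72 h over a 256-fold dose range (nine 2-fold or five 4-fold steps up to the top dose). Adherent lines were fixed and stained with the nucleic acid dye Syto60, suspension lines read with resazurin; signal relative to control wells, capped at 0 and 100%. One two-parameter sigmoid per drug and line, fitted in a mixed model over all curves with the slope shared within a line.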

KIN001-270 = compound: Cc1ccc(Nc2cc(-c3cccc(N4C(=O)c5ccccc5C4=O)c3)ncn2)cc1NS(C)(=O)=O [KIN001-270]; conditions: top dose 20 µM; top dose inferred
Protocol: as §1

Nilotinib = compound: Cc1cn(-c2cc(NC(=O)c3ccc(C)c(Nc4nccc(-c5cccnc5)n4)c3)cc(C(F)(F)F)c2)cn1 [Nilotinib]; conditions: top dose 2 µM
Protocol: as §1

Gemcitabine = compound: Nc1ccn([C@@H]2O[C@H](CO)[C@@H](O)C2(F)F)c(=O)n1 [Gemcitabine]; conditions: top dose 1.024 µM
Protocol: as §1

T0901317 = compound: O=S(=O)(c1ccccc1)N(CC(F)(F)F)c1ccc(C(O)(C(F)(F)F)C(F)(F)F)cc1 [T0901317]; conditions: top dose 10.24 µM; top dose inferred
Protocol: as §1

GNF-2 = compound: NC(=O)c1cccc(-c2cc(Nc3ccc(OC(F)(F)F)cc3)ncn2)c1 [GNF-2]; conditions: top dose 1.28 µM; top dose inferred
Protocol: as §1

LFM-A13 = compound: C/C(O)=C(\C#N)C(=O)Nc1cc(Br)ccc1Br [LFM-A13]; conditions: top dose 16 µM; top dose inferred
Protocol: as §1

AUY922 = compound: CCNC(=O)c1noc(-c2cc(C(C)C)c(O)cc2O)c1-c1ccc(CN2CCOCC2)cc1 [AUY922]; conditions: top dose 0.256 µM; top dose inferred
Protocol: as §1

MP470 = compound: S=C(NCc1ccc2c(c1)OCO2)N1CCN(c2ncnc3c2oc2ccccc23)CC1 [MP470]; conditions: top dose 20 µM; top dose inferred
Protocol: as §1

Bicalutamide = compound: CC(O)(CS(=O)(=O)c1ccc(F)cc1)C(=O)Nc1ccc(C#N)c(C(F)(F)F)c1 [Bicalutamide]; conditions: top dose inferred
Protocol: as §1

[1] = top dose 1.024 µM, screen: GDSC drug entry 150
[2] = top dose 10 µM, screen: GDSC drug entry 1502

Cell Line | AUC (TW-37) | IC50 (TW-37) [nM] | AUC (KIN001-270) | IC50 (KIN001-270) [nM] | AUC (Nilotinib) | IC50 (Nilotinib) [nM] | AUC (Gemcitabine) | IC50 (Gemcitabine) [nM] | AUC (T0901317) | IC50 (T0901317) [nM] | AUC (GNF-2) | IC50 (GNF-2) [nM] | AUC (LFM-A13) | IC50 (LFM-A13) [nM] | AUC (AUY922) | IC50 (AUY922) [nM] | AUC (MP470) | IC50 (MP470) [nM] | AUC (Bicalutamide; [1]) | IC50 (Bicalutamide; [1]) [nM] | AUC (Bicalutamide; [2]) | IC50 (Bicalutamide; [2]) [nM]
SW954 (urogenital system, adherent) | 0.565 | 472 | 0.951 | > 20000 | 0.973 | > 2000 | 0.225 | 9.96 | 0.926 | > 10200 | 0.985 | > 1280 | 0.964 | > 16000 | 0.421 | 9.67 | 0.948 | > 20000 | 0.984 | > 1020 | 0.978 | > 10000
JiyoyeP-2003 (Burkitt lymphoma, suspension) | 0.549 | 417 | 0.953 | > 20000 | 0.991 | > 2000 | 0.313 | 20.6 | 0.962 | > 10200 | 0.981 | > 1280 | 0.98 | > 16000 | 0.566 | 23.6 | 0.931 | > 20000 | 0.99 | > 1020 | 0.984 | > 10000
EVSA-T (breast, adherent) | 0.508 | 328 | 0.954 | > 20000 | 0.991 | > 2000 | 0.961 | > 1020 | 0.973 | > 10200 | 0.991 | > 1280 | 0.99 | > 16000 | 0.818 | 119 | 0.929 | > 20000 | 0.991 | > 1020 | 0.991 | > 10000
NCI-H69 (small cell lung carcinoma, suspension) | 0.756 | 1880 | 0.959 | > 20000 | 0.986 | > 2000 | 0.806 | 594 | 0.981 | > 10200 | 0.986 | > 1280 | 0.977 | > 16000 | 0.888 | > 256 | 0.723 | 5820 | 0.985 | > 1020 | 0.97 | > 10000
HL-60 (acute myeloid leukaemia, suspension) | 0.671 | 882 | 0.981 | > 20000 | 0.941 | > 2000 | 0.243 | 12.8 | 0.942 | > 10200 | 0.983 | > 1280 | 0.989 | > 16000 | 0.493 | 15.4 | 0.858 | 13800 | 0.987 | > 1020 | 0.986 | > 10000
NH-12 (neuroblastoma, adherent) | 0.5 | 312 | 0.958 | > 20000 | 0.984 | > 2000 | 0.44 | 43.1 | 0.983 | > 10200 | 0.984 | > 1280 | 0.963 | > 16000 | 0.654 | 45.4 | 0.908 | > 20000 | 0.985 | > 1020 | – | –
BE2-M17 (neuroblastoma, adherent) | 0.174 | 30.9 | 0.971 | > 20000 | 0.97 | > 2000 | 0.72 | 274 | 0.939 | > 10200 | 0.984 | > 1280 | 0.978 | > 16000 | 0.8 | 128 | 0.324 | 398 | 0.983 | > 1020 | 0.963 | > 10000
MHH-PREB-1 (B-cell leukaemia, suspension) | 0.386 | 158 | 0.907 | > 20000 | 0.967 | > 2000 | 0.708 | 230 | 0.984 | > 10200 | 0.982 | > 1280 | 0.986 | > 16000 | 0.638 | 36.8 | 0.903 | > 20000 | 0.979 | > 1020 | 0.971 | > 10000
Mo-T (hairy cell leukaemia, suspension) | 0.451 | 230 | 0.946 | > 20000 | 0.939 | > 2000 | 0.961 | > 1020 | 0.949 | > 10200 | 0.985 | > 1280 | 0.988 | > 16000 | 0.634 | 37.7 | 0.492 | 1190 | 0.988 | > 1020 | 0.977 | > 10000
EW-24 (Ewing sarcoma, semi-adherent) | 0.896 | 4840 | 0.992 | > 20000 | 0.991 | > 2000 | 0.964 | > 1020 | 0.981 | > 10200 | 0.993 | > 1280 | 0.992 | > 16000 | 0.843 | 150 | 0.846 | 12000 | 0.991 | > 1020 | 0.99 | > 10000
NB69 (neuroblastoma, adherent) | 0.696 | 1030 | 0.948 | > 20000 | 0.986 | > 2000 | 0.261 | 14.6 | 0.984 | > 10200 | 0.99 | > 1280 | 0.964 | > 16000 | 0.497 | 15.7 | 0.955 | > 20000 | 0.987 | > 1020 | – | –
BL-41 (Burkitt lymphoma, suspension) | 0.374 | 153 | 0.773 | 6010 | 0.988 | > 2000 | 0.17 | 9.17 | 0.074 | 42.1 | 0.987 | > 1280 | 0.991 | > 16000 | 0.535 | 19.5 | 0.151 | 157 | 0.994 | > 1020 | 0.994 | > 10000

IC50 is the fitted dose that halves viability relative to control wells, and lower means more sensitive; fits outside the tested doses are given as limits. For AUC the same curve is integrated over the 256-fold range of doses and scaled to a fraction; it is 1 without any effect and falls as sensitivity rises. For some assays here: Any top dose called inferred was derived from the fitted curves, not read from the paper. For some assays here: Drugs with an entry number were screened twice under separate entries, and the two screens often disagree.
